Values marked as one replicate rest on one cluster of the flow cell; about a third of the high ones do not repeat.
Tested on: ATP
Assay: switch fluorescence ratio, 500 uM ATP over buffer (Cy3 cluster intensity, sum of 5 cycles each) (fold (ratio)); higher = stronger signal-on switching upon ATP binding; sequences stand for … in TCGTCGGCAGCGTCAGATGTGTATAAGAGACAGTTTTTTTTTTTTTTTTTTTTTTTTT…TC
Settings: aptamer strand: ATP DNA aptamer (quencher-CACCTGGGGGAGTATTGCGGAGGAAGG + anchor), 100 nM annealed; ATP concentration: 500 uM; one replicate
Summary of the method: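 The quencher-labelled ATP aptamer, at 100 nM, was annealed to Cy3-labelled switching-strand clusters on a modified Illumina MiSeq flow-cell. The clusters were imaged in selection buffer, then after 15 min with 500 uM ATP at 22 °C, and this buffer/ATP cycle ran five times with NaOH stripping and re-annealing between runs. Per-cluster fluorescence ratios, summed target-cycle over summed buffer-cycle Cy3 intensity, were averaged per switch-domain sequence. Clusters outside 100-1000 RFU were excluded.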
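Note: ATP exposure 15 min at 22 °C before imaging.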

ACAGACTTCG showed a switch fluorescence ratio of 1.03.

GGATTTGCGT was tested, and the switch fluorescence ratio was 1.

Work on TGCACAGGGA yielded a switch fluorescence ratio of 1.09.

AGGTGATGAC showed a switch fluorescence ratio of 1.02.

For CCCATAGAGT, the switch fluorescence ratio was 0.99.

AGACTCTTTC was tested, and the switch fluorescence ratio was 1.08.

Work on GCTCAATTTG yielded a switch fluorescence ratio of 0.954.

For AATACTGCTT, the switch fluorescence ratio was 0.987.

With TAATGGCTTT the switch fluorescence ratio was 1.05.

CATCCCGGCA was tested, and the switch fluorescence ratio was 1.23.

With AGCGTGCAGA the switch fluorescence ratio was 1.02.

Work on GGTTTCTGAG yielded a switch fluorescence ratio of 0.997.

For ATAATACACT, the switch fluorescence ratio was 1.06.

With TAATAAGAAT the switch fluorescence ratio was 0.977.

GAGTGTGTCC was tested, and the switch fluorescence ratio was 1.02.

Work on ATGTTTAACC yielded a switch fluorescence ratio of 0.999.

For CTAAACTAAG, the switch fluorescence ratio was 1.04.

CACTAATACG was tested, and the switch fluorescence ratio was 1.15.

AACTTTGCGT showed a switch fluorescence ratio of 0.981.

AGTCCGATTG showed a switch fluorescence ratio of 1.

GAATTAACCG gave a switch fluorescence ratio of 1.09.

ACGTTATG was tested, and the switch fluorescence ratio was 1.15.

ATCATCACT was tested, and the switch fluorescence ratio was 1.07.

In the case of TCGTCTCCA, the switch fluorescence ratio is reported as 1.

Work on ACTTGACTTA yielded a switch fluorescence ratio of 1.13.

With TAGCTAGAAT the switch fluorescence ratio was 0.985.

CTTTAGTAGT gave a switch fluorescence ratio of 1.01.

CACGGGGCTC showed a switch fluorescence ratio of 1.06.

Sequence AGGTGGGAAT has a switch fluorescence ratio of 1.12.

TTCGATTAGG showed a switch fluorescence ratio of 0.997.

With GTGTATTAAG the switch fluorescence ratio was 0.985.

For GGTGGTTCAT, the switch fluorescence ratio was 1.02.

With GGAAGTTTAT the switch fluorescence ratio was 0.99.

TGGGCGATGG gave a switch fluorescence ratio of 0.991.

CTACATCCGA showed a switch fluorescence ratio of 1.12.

With GGGACTTGAG the switch fluorescence ratio was 0.945.

TCGTAAAACC gave a switch fluorescence ratio of 1.27.

Sequence TAGGCCCTGC has a switch fluorescence ratio of 1.01.

TGCTAAGCCA was tested, and the switch fluorescence ratio was 1.06.

With TCAATGGGTT the switch fluorescence ratio was 0.983.

Work on CAAAGGTAAT yielded a switch fluorescence ratio of 1.06.

In the case of GCGTAGCGGG, the switch fluorescence ratio is reported as 0.958.

In the case of CGTTGATTTT, the switch fluorescence ratio is reported as 0.991.

In the case of AGGACGGATG, the switch fluorescence ratio is reported as 0.947.

In the case of CGGTCTCTCT, the switch fluorescence ratio is reported as 1.

Sequence TATGTACCAC has a switch fluorescence ratio of 1.05.

With AACAGGCGAG the switch fluorescence ratio was 0.95.

AGGGACGGGT was tested, and the switch fluorescence ratio was 1.

With AGCTAACATT the switch fluorescence ratio was 1.02.

For GGACTAATGG, the switch fluorescence ratio was 1.18.

Sequence TTTGCCTGTG has a switch fluorescence ratio of 1.02.

TGAAGCACAC showed a switch fluorescence ratio of 4.14.

AATGCAGGG gave a switch fluorescence ratio of 0.99.

For TGTTGATGGA, the switch fluorescence ratio was 1.04.

CTAAAATGTG was tested, and the switch fluorescence ratio was 1.02.

AAATCGCGCT was tested, and the switch fluorescence ratio was 1.01.

ACAAATACGC was tested, and the switch fluorescence ratio was 1.1.

In the case of CGGAAAGGAG, the switch fluorescence ratio is reported as 0.983.

Sequence AGCAAACGCG has a switch fluorescence ratio of 1.04.

CTTAGGGAGG was tested, and the switch fluorescence ratio was 0.995.

ACGGGGTCTC was tested, and the switch fluorescence ratio was 0.983.

CACTGATGTG gave a switch fluorescence ratio of 0.991.

Work on TTGTTTCCGG yielded a switch fluorescence ratio of 1.04.

In the case of AGGTTGCCCT, the switch fluorescence ratio is reported as 0.951.

With TTAGCATCCT the switch fluorescence ratio was 1.1.

TATAAGTTG was tested, and the switch fluorescence ratio was 1.01.

In the case of ATAATCTGAT, the switch fluorescence ratio is reported as 0.957.

CCTATCGGG gave a switch fluorescence ratio of 1.

For GTCGGCACCC, the switch fluorescence ratio was 1.02.

Work on TCGGTCAGGT yielded a switch fluorescence ratio of 1.01.

Work on CCAGTGAATG yielded a switch fluorescence ratio of 0.986.

For TGTGCAGGGT, the switch fluorescence ratio was 0.973.

CTCCCAGCAG gave a switch fluorescence ratio of 2.77.

Work on TTAAGACAGG yielded a switch fluorescence ratio of 0.98.

In the case of GCATCGCTCG, the switch fluorescence ratio is reported as 0.998.

GGGTTGCGGC was tested, and the switch fluorescence ratio was 1.01.

Work on GGCTCCGAAT yielded a switch fluorescence ratio of 2.33.

For TGTTTAAAT, the switch fluorescence ratio was 1.

For TGCCGTAAAA, the switch fluorescence ratio was 1.02.

With GAGCGGATTG the switch fluorescence ratio was 0.985.

In the case of TAAAGTTCCT, the switch fluorescence ratio is reported as 1.1.

With GGCTGTCATT the switch fluorescence ratio was 0.994.

ATATACTCGC showed a switch fluorescence ratio of 1.21.

Sequence GGAGCAGGTA has a switch fluorescence ratio of 1.05.

In the case of ACTCATCCTC, the switch fluorescence ratio is reported as 1.13.

TGAATGGAGT showed a switch fluorescence ratio of 0.976.

Work on GATCCAATTA yielded a switch fluorescence ratio of 0.949.

With GGAAATAGCG the switch fluorescence ratio was 0.991.

With TGTCAGGCCT the switch fluorescence ratio was 0.97.

Work on TGAGTCATAT yielded a switch fluorescence ratio of 1.08.

TGAACCTAGG was tested, and the switch fluorescence ratio was 1.08.

In the case of GTTTGCAGCT, the switch fluorescence ratio is reported as 0.987.

For GACGATATCA, the switch fluorescence ratio was 1.

Work on CGTGTGGAG yielded a switch fluorescence ratio of 0.998.

AGATAGTTAT gave a switch fluorescence ratio of 0.98.

With CGACTTGGCC the switch fluorescence ratio was 1.02.

Sequence AACGGGCCCA has a switch fluorescence ratio of 0.975.

For TAAATGTAAT, the switch fluorescence ratio was 1.03.

Work on GATGTGTAGC yielded a switch fluorescence ratio of 1.04.

In the case of GTGTATATAG, the switch fluorescence ratio is reported as 0.988.

GCGCTCATTC gave a switch fluorescence ratio of 1.14.

CGTGGGCACA showed a switch fluorescence ratio of 0.975.

CAGGACCGC gave a switch fluorescence ratio of 1.2.

CAATCCTCAA showed a switch fluorescence ratio of 1.31.

AGGTATAGAA showed a switch fluorescence ratio of 1.01.

In the case of AACAAGGAA, the switch fluorescence ratio is reported as 0.975.

TTGGTCACCT gave a switch fluorescence ratio of 1.05.

Sequence TTGGGAGAAC has a switch fluorescence ratio of 0.978.

With ACTTTTGGAA the switch fluorescence ratio was 1.02.

ACGGAACGGA gave a switch fluorescence ratio of 1.04.

Work on TGTGAATCGT yielded a switch fluorescence ratio of 0.996.

In the case of GAATGAGGGG, the switch fluorescence ratio is reported as 0.996.

GTGAACCAGG showed a switch fluorescence ratio of 1.28.

TAATACACCG showed a switch fluorescence ratio of 1.

In the case of TGACTTTTCT, the switch fluorescence ratio is reported as 0.971.

ACAATCATTC gave a switch fluorescence ratio of 1.01.

Sequence TCTAACACAA has a switch fluorescence ratio of 1.13.

AATCGAGATG gave a switch fluorescence ratio of 0.973.

Sequence CAGCTTCGTA has a switch fluorescence ratio of 0.967.

In the case of ACGGTAGAAG, the switch fluorescence ratio is reported as 1.09.

With GCGGAAGCTC the switch fluorescence ratio was 1.

Work on TCGTTGGGGC yielded a switch fluorescence ratio of 0.981.

TCATGTTACA showed a switch fluorescence ratio of 1.04.

Work on AATGAGGAGT yielded a switch fluorescence ratio of 0.996.

Work on TTTACGGAGT yielded a switch fluorescence ratio of 1.01.

TAATAGTCTT was tested, and the switch fluorescence ratio was 0.991.

With TTCTTTATAA the switch fluorescence ratio was 0.957.

TTTAGCTGGA was tested, and the switch fluorescence ratio was 0.988.

Work on CTATTTTGT yielded a switch fluorescence ratio of 0.974.

CATAGATAGT was tested, and the switch fluorescence ratio was 0.991.

Work on GGATGGTCCG yielded a switch fluorescence ratio of 0.995.

TTAGCTAGAA showed a switch fluorescence ratio of 0.988.

For CAATGTTTCT, the switch fluorescence ratio was 0.953.

CACCGTCCTG showed a switch fluorescence ratio of 1.05.

Work on ATATCCAGAA yielded a switch fluorescence ratio of 0.987.

Sequence GGTGGCACCT has a switch fluorescence ratio of 1.04.

With TACTACAGCG the switch fluorescence ratio was 1.03.

ATGTTAACAA gave a switch fluorescence ratio of 0.972.

ACCTTTCTAG showed a switch fluorescence ratio of 1.16.

GTTGGGCA was tested, and the switch fluorescence ratio was 1.04.

GTCGTCCAGG was tested, and the switch fluorescence ratio was 1.24.

Work on TGCTGTATAT yielded a switch fluorescence ratio of 0.999.

In the case of CCGTGCCCTG, the switch fluorescence ratio is reported as 1.05.

Work on GACTGTGTTT yielded a switch fluorescence ratio of 1.

GAAAATGCTG gave a switch fluorescence ratio of 0.956.

Sequence CGGATATTAT has a switch fluorescence ratio of 1.01.

For TACCAGTAG, the switch fluorescence ratio was 1.04.

Work on GCCAGGACGG yielded a switch fluorescence ratio of 0.9.

Work on GCGACCTCTG yielded a switch fluorescence ratio of 1.08.

Sequence AGTGCAAGGA has a switch fluorescence ratio of 0.98.

For TACAATGGT, the switch fluorescence ratio was 1.02.

For AAGGTCAGCA, the switch fluorescence ratio was 1.02.

CATCGGGTTA gave a switch fluorescence ratio of 1.08.

AGGCATGGTC was tested, and the switch fluorescence ratio was 1.04.

Sequence ATCATTACGG has a switch fluorescence ratio of 1.01.

With TCGTCCCCGT the switch fluorescence ratio was 0.996.

TTTCAGCCCT gave a switch fluorescence ratio of 1.04.

Source: the supplement of paper PMC10126150
